Results reported in article PMC11943272.
No constants are given. Whether binding was seen depends on the method and setting. Binding seen in cells or lysates may run through a third protein. Some entries that bind do so weakly or less than the wild type. For some assays here: Tags and fused reporters may be left off the sequences shown. Each block holds one binder with its values, some of them ahead of it.

Chains of the proteins cited; added tags and fusions are not shown.
UniProt P53173: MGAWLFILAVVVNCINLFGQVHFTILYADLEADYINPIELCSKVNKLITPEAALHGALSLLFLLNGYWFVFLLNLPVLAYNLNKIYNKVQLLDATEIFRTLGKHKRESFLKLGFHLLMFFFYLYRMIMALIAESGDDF

Assays:
Anp1-VN (S. cerevisiae) = target: T1, Anp1-VN (S. cerevisiae) (UniProt P32629); experiment: split reporter; BiFC with VN and VC fragments of VENUS in living yeast cells, seen in the YFP channel
T1 sequence: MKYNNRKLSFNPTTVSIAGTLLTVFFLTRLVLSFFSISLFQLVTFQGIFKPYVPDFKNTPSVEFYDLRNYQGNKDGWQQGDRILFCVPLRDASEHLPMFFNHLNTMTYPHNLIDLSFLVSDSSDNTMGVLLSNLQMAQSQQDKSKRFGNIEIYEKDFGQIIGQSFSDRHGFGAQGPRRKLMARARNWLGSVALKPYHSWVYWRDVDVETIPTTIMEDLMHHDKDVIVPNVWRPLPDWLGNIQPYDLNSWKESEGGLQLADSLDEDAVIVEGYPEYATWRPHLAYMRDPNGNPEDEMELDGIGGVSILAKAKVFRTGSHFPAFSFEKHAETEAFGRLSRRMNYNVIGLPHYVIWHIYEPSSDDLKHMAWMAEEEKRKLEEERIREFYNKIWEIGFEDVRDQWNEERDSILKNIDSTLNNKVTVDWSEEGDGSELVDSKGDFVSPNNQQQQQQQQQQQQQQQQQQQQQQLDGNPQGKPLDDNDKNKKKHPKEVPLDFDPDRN

Sec28-VN (S. cerevisiae) = target: T2, Sec28-VN (S. cerevisiae) (UniProt P40509); experiment: as above
T2 sequence: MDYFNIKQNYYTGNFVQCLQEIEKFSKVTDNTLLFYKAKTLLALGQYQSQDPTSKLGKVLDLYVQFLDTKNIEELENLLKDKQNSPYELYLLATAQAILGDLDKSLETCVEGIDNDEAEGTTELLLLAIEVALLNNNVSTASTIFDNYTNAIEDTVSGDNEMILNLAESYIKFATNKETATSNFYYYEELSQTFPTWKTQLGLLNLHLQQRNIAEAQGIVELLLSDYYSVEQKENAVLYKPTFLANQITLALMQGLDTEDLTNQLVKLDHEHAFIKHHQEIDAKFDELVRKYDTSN

[1] = target: Chs3-3xHA (S. cerevisiae) (UniProt P29465); experiment: cross-linking; DSP added to cleared yeast lysate (10 μg total protein, PBS pH 7.4, 30 min, 22 °C) of the chs7∆ mutant; non-reducing SDS-PAGE, anti-HA blot; DTT reverts the cross-link
[2] = target: Erv14-mCi (S. cerevisiae) (UniProt P53173); experiment: co-IP; Erv14-mCi precipitated with rabbit anti-GFP and Protein A Sepharose from yeast lysates (CHS7 strain; for wild-type Chs3 also the chs7∆ mutant); 50 mM Tris-HCl pH 8.0, 0.1% Triton, 150 mM NaCl, 4 °C; blots with anti-GFP and anti-HA
[3] = target: Erv14-mCi (S. cerevisiae) (UniProt P53173); experiment: co-IP; as a1, lysate of the chs7∆ mutant (no Chs7): Erv14-mCi precipitated with anti-GFP, blot with anti-HA
[4] = target: ^∆126Chs3-3xHA (S. cerevisiae) (UniProt P29465); experiment: cross-linking; DSP added to cleared yeast lysate (10 μg total protein, PBS pH 7.4, 30 min, 22 °C) of the chs7∆ mutant; non-reducing SDS-PAGE, anti-HA blot; DTT reverts the cross-link
[5] = target: T3, Chs7-13xMyc (S. cerevisiae) (UniProt P38843); experiment: co-IP; Chs7-13xMyc precipitated with anti-Myc 9E10 and Protein A Sepharose from yeast lysates with or without Chs3; 50 mM Tris-HCl pH 8.0, 0.1% Triton, 150 mM NaCl, 4 °C; blots with anti-myc and anti-GFP
T3 sequence: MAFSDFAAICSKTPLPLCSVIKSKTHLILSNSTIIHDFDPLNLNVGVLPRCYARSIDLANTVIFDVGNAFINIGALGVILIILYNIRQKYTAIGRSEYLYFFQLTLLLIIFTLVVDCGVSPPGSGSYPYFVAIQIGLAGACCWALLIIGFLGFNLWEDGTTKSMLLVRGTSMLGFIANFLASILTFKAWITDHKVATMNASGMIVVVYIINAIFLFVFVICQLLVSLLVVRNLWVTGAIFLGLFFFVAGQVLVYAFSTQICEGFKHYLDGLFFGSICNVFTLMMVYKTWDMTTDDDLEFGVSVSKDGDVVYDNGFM

B1: Chs7-VC (protein, UniProt P38843 1-316)
chain: MAFSDFAAICSKTPLPLCSVIKSKTHLILSNSTIIHDFDPLNLNVGVLPRCYARSIDLANTVIFDVGNAFINIGALGVILIILYNIRQKYTAIGRSEYLYFFQLTLLLIIFTLVVDCGVSPPGSGSYPYFVAIQIGLAGACCWALLIIGFLGFNLWEDGTTKSMLLVRGTSMLGFIANFLASILTFKAWITDHKVATMNASGMIVVVYIINAIFLFVFVICQLLVSLLVVRNLWVTGAIFLGLFFFVAGQVLVYAFSTQICEGFKHYLDGLFFGSICNVFTLMMVYKTWDMTTDDDLEFGVSVSKDGDVVYDNGFM
binding (Anp1-VN (S. cerevisiae)): no binding | binding (Sec28-VN (S. cerevisiae)): binds

B2: Chs3-3xHA (protein, UniProt P29465 1-1165)
chain: MTGLNGDDPDDYYLNLNQDEESLLRSRHSVGSGAPHRQGSLVRPERSRLNNPDNPHFYYAQKTQEQMNHLDVLPSSTGVNPNATRRSGSLRSKGSVRSKFSGRETDSYLLQDMNTTDKKASVKISDEGVAEDEFDKDGDVDNFEESSTQPINKSIKPLRKETNDTLSFWQMYCYFITFWAPAPILAFCGMPKKERQMAWREKVALISVILYIGAIVAFLTFGFTKTVCSSSKLRLKNNEVSTEFVVINGKAYELDTSSRSGIQDVEVDSDTLYGPWSDAGKDASFLFQNVNGNCHNLITPKSNSSIPHDDDNNLAWYFPCKLKNQDGSSKPNFTVENYAGWNCHTSKEDRDAFYGLKSKADVYFTWDGIKNSSRNLIVYNGDVLDLDLLDWLEKDDVDYPVVFDDLKTSNLQGYDLSLVLSNGHERKIARCLSEIIKVGEVDSKTVGCIASDVVLYVSLVFILSVVIIKFIIACYFRWTVARKQGAYIVDNKTMDKHTNDIEDWSNNIQTKAPLKEVDPHLRPKKYSKKSLGHKRASTFDLLKKHSSKMFQFNESVIDLDTSMSSSLQSSGSYRGMTTMTTQNAWKLSNENKAVHSRNPSTLLPTSSMFWNKATSSPVPGSSLIQSLDSTIIHPDIVQQPPLDFMPYGFPLIHTICFVTCYSEDEEGLRTTLDSLSTTDYPNSHKLLMVVCDGLIKGSGNDKTTPEIALGMMDDFVTPPDEVKPYSYVAVASGSKRHNMAKIYAGFYKYDDSTIPPENQQRVPIITIVKCGTPAEQGAAKPGNRGKRDSQIILMSFLEKITFDERMTQLEFQLLKNIWQITGLMADFYETVLMVDADTKVFPDALTHMVAEMVKDPLIMGLCGETKIANKAQSWVTAIQVFEYYISHHQAKAFESVFGSVTCLPGCFSMYRIKSPKGSDGYWVPVLANPDIVERYSDNVTNTLHKKNLLLLGEDRFLSSLMLKTFPKRKQVFVPKAACKTIAPDKFKVLLSQRRRWINSTVHNLFELVLIRDLCGTFCFSMQFVIGIELIGTMVLPLAICFTIYVIIFAIVSKPTPVITLVLLAIILGLPGLIVVITATRWSYLWWMCVYICALPIWNFVLPSYAYWKFDDFSWGDTRTIAGGNKKAQDENEGEFDHSKIKMRTWREFEREDILNRKEESDSFVA
binding [1]: binds | binding [2]: binds

More lines, now with the values ahead:

binding [3]: binds weakly | binding [4]: no binding | binding [2]: binds
B3: ^∆126Chs3-3xHA (domain or fragment, UniProt P29465 127-1165)
chain: EGVAEDEFDKDGDVDNFEESSTQPINKSIKPLRKETNDTLSFWQMYCYFITFWAPAPILAFCGMPKKERQMAWREKVALISVILYIGAIVAFLTFGFTKTVCSSSKLRLKNNEVSTEFVVINGKAYELDTSSRSGIQDVEVDSDTLYGPWSDAGKDASFLFQNVNGNCHNLITPKSNSSIPHDDDNNLAWYFPCKLKNQDGSSKPNFTVENYAGWNCHTSKEDRDAFYGLKSKADVYFTWDGIKNSSRNLIVYNGDVLDLDLLDWLEKDDVDYPVVFDDLKTSNLQGYDLSLVLSNGHERKIARCLSEIIKVGEVDSKTVGCIASDVVLYVSLVFILSVVIIKFIIACYFRWTVARKQGAYIVDNKTMDKHTNDIEDWSNNIQTKAPLKEVDPHLRPKKYSKKSLGHKRASTFDLLKKHSSKMFQFNESVIDLDTSMSSSLQSSGSYRGMTTMTTQNAWKLSNENKAVHSRNPSTLLPTSSMFWNKATSSPVPGSSLIQSLDSTIIHPDIVQQPPLDFMPYGFPLIHTICFVTCYSEDEEGLRTTLDSLSTTDYPNSHKLLMVVCDGLIKGSGNDKTTPEIALGMMDDFVTPPDEVKPYSYVAVASGSKRHNMAKIYAGFYKYDDSTIPPENQQRVPIITIVKCGTPAEQGAAKPGNRGKRDSQIILMSFLEKITFDERMTQLEFQLLKNIWQITGLMADFYETVLMVDADTKVFPDALTHMVAEMVKDPLIMGLCGETKIANKAQSWVTAIQVFEYYISHHQAKAFESVFGSVTCLPGCFSMYRIKSPKGSDGYWVPVLANPDIVERYSDNVTNTLHKKNLLLLGEDRFLSSLMLKTFPKRKQVFVPKAACKTIAPDKFKVLLSQRRRWINSTVHNLFELVLIRDLCGTFCFSMQFVIGIELIGTMVLPLAICFTIYVIIFAIVSKPTPVITLVLLAIILGLPGLIVVITATRWSYLWWMCVYICALPIWNFVLPSYAYWKFDDFSWGDTRTIAGGNKKAQDENEGEFDHSKIKMRTWREFEREDILNRKEESDSFVA

binding [5]: binds
B4: Gga2-GFP (protein, UniProt P38817 1-585)
chain: MSHPHSHSIYLSELPVRKPQALGNPLLRKIQRACRMSLAEPDLALNLDIADYINEKQGAAPRDAAIALAKLINNRESHVAIFALSLLDVLVKNCGYPFHLQISRKEFLNELVKRFPGHPPLRYSKIQRLILTAIEEWYQTICKHSSYKNDMGYIRDMHRLLKYKGYAFPKISESDLAVLKPSNQLKTASEIQKEQEIAQAAKLEELIRRGKPEDLREANKLMKIMAGFKEDNAVQAKQAISSELNKLKRKADLLNEMLESPDSQNWDNETTQELHSALKVAQPKFQKIIEEEQEDDALVQDLLKFNDTVNQLLEKFNLLKNGDSNAASQIHPSHVSAPLQQSSGALTNEINLIDFNDLDEAPSQGNNNTNGTGTPAAAETSVNDLLGDLTDLSISNPSTANQASFGLGGDIVLGSSQPAPPVTTTNNSNNTLDLLGLSTPQSPTNSQAVNSSGFDLLMGFNPTTGTTTAPARTLVNQSPNLKIEFEISRESNSVIRIKSFFTNLSSSPISNLVFLLAVPKSMSLKLQPQSSNFMIGNAKDGISQEGTIENAPANPSKALKVKWKVNYSVNSTQAEETAVFTLPNV
